Consider 57 sequences from the supplement of paper PMC11417369.

The other results are listed elsewhere or left out.

This experiment has as its system PfHDP1 homeodomain (GST-tagged). The experiment can be described thus: gcPBM binding intensity (ln(normalized median fluorescence intensity)); higher = stronger DNA binding. A digest of the protocol:
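Plasmodium falciparum DNA-binding domains carrying a GST tag were expressed in E. coli and applied for 1 h, at about 25 μg on average, to an Agilent 4 × 180k array. The array held primer-extended double-stranded 36-bp intergenic genomic probes together with negative controls, and binding took place in 1× PBS with 1% milk, 0.2 mg/ml BSA, 0.5% salmon testes DNA and 0.03% Triton X-100. An Alexa488 anti-GST antibody detected bound protein, and the array was scanned at 488 nm. Binding intensity is taken as the highest Masliner-normalised natural-log median intensity across replicate spots of either probe orientation.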
As for “ATATTTGTAATTATTAAACACACACTAATTATATAT [CACACA_site8803]”, the “gcPBM binding intensity (ln)” value worked out at 6.72.
As for “TTTTATGAAAAATGGCTTATCTGTAAAGAAGTGGAG [CACACA_negctrl_site1586]”, the “gcPBM binding intensity (ln)” value is 6.59.
To “ATAAAGAAAATATGGAGTACATTTATATCCAATATA [XGTACX_site3085]” belongs 6.29; to “AAATATATACTACCGATGCACTAAATATAAACACAT [GTGCAC_site9777]”, 7.53.
To “TTAATTTTTGAAGGTACACACTAATATATTAAATAT [CACACA_site4791]” belongs 6.62.
Regarding “TTATCCCCCTATCATTGTACATTAATACAAACTAAA [XGTACX_site5630]”, the “gcPBM binding intensity (ln)” value was found to be 7.64.
For the sequence “AAAATGAAACAAATATGTACACATATAAATATTTCC [XGTACX_site54]”, the “gcPBM binding intensity (ln)” value was 6.25.
To “AAAACAGACAAACACACACACACATATATATATATA [CACACA_site3393]” belongs 9.2.
Turning to “CTTTTAATTATAAAATGTACTTAAAAATAATAATAC [XGTACX_site635]”, the “gcPBM binding intensity (ln)” value was determined as 6.2.
With “TTTTAAATTTTTTAAAGTACACGTCGAAAAGGTATA [XGTACX_site76]”, the “gcPBM binding intensity (ln)” value is 6.99.
To “AAGAATTATATATTCACACAAAAAAAAAGTAAAAGA [CACACA_site5335]” belongs 6.6.
As for “AATATATTAAATCTTACACACTAAAAAATATGTAAC [CACACA_site4325]”, the “gcPBM binding intensity (ln)” value was 5.96.
In the case of “TGTTTAACACATGTTTCAAACAAAAAAAAAAAGACA [CACACA_negctrl_site1356]”, the “gcPBM binding intensity (ln)” value is 6.54.
To “AAAAAAAAAAAAAAGAGTACATTTATTTATATATCT [XGTACX_site2381]” belongs 6.09; to “TTTTAACATAGAAGTACACACATATAATCAATCATA [CACACA_site5313]”, 6.46.
To “TATAATATATATATATGTACATATTATTTACATATA [XGTACX_site7312]” belongs 6.76; to “AAATATTTTTTAATTGTTCACTTGGTGGATCATTAA [CACACA_negctrl_site922]”, 6.13; to “TATCCATTATTTAAAAGTACAAAAAACGATTTACAC [XGTACX_site2979]”, 6.42.
“TATTATATATATGGAAGTACAGGTATATCGTTTTTC [XGTACX_site3771]”: the “gcPBM binding intensity (ln)” value came to 6.38.
To “TTTTTTTTTCGCTTTTGTACACATTTTATAGAACAG [XGTACX_site2416]” belongs 7.04.
To “TTTTCCCTTAACCTCTGTACATATAATTTTCTTTCC [XGTACX_site4180]” belongs 7.01.
To “TTAAAAAAAAATAAAGGTACACGGAGAAATCCTTTT [XGTACX_site7509]” belongs 6.04; to “ATATATTTATTATTAGGTACACATATATATATATAT [XGTACX_site5045]”, 9.29.
For “TGTAGTAATGCTTATTGTACATATACATTTCTTACA [XGTACX_site219]”, the “gcPBM binding intensity (ln)” value amounted to 6.57.
“TTATATAGAATTAATTTCTTTTTTTTCTTTTTTAAA [CACACA_negctrl_site1308]”: the “gcPBM binding intensity (ln)” value amounted to 5.83.
To “AACCACCACACCATCACACATAAGATTAGACGAGTA [CACACA_site6063]” belongs 6.71; to “ATTTTTTTTTTTTTTTCATGAAATTTTTTTTTTTTT [CACACA_negctrl_site1069]”, 5.9; to “TGCTTTTCTTTTTGCACACTTATGCATATATATATA [CACACA_site2583]”, 10.8.
To “AAATAAGAAAAAGCGCGTACACATAACATTTTTATA [XGTACX_site8807]” belongs 6.32; to TGTATTCTCTTAGTAGTGCATTTGAAGATTATATAA, 8.81.
As to TTTATTCAAGGAATAGTGCATAATAATAAGTATTAT, the “gcPBM binding intensity (ln)” value came out at 8.21.
To “TCTAATGATATATACACACACATATAGATTTATATA [CACACA_site7044]” belongs 6.86; to “ATTTTTCTAAAATACTGTACAAAGGTGCATAAAAAG [XGTACX_site4425]”, 11.1.
To “TTTTCTGTTTTCATTACACACCTTACAAGAACAATA [CACACA_site2158]” belongs 7.08; to “ATATTTATGGAATATACACACATGTATAATTATATA [CACACA_site2033]”, 6.51.
To “TAGAATATGTTTAGTTGTACAAAACAAAATGGAATT [XGTACX_site5293]” belongs 6.39; to “ATTTATTTTTTGTGTTCACACATTAGTATCATCTAT [CACACA_site5274]”, 6.19.
Turning to “CACATAAAAAAATAAACACACATATGTATATATATA [CACACA_site3177]”, the “gcPBM binding intensity (ln)” value turned out to be 7.91.
On to “TAATATATGTATATATGTACATATAAATGTTATAGA [XGTACX_site2721]”, for which the “gcPBM binding intensity (ln)” value amounted to 6.6.
To “TTGGTATAAAATTATAGTACATAAGGTAAATATAAA [XGTACX_site4698]” belongs 6.41.
Consider “GATGTTCATCACTACACACACAAAGAAATATATATA [CACACA_site2684]”, for which the “gcPBM binding intensity (ln)” value came to 6.94.
To “TTGTATTTCCTTAGGAGTACACATAAATAAGTAAAT [XGTACX_site6677]” belongs 6.63.
Take “AAAGAAAAAAAATATAAAAAATAAAAAATAAAACAA [CACACA_negctrl_site374]”: the “gcPBM binding intensity (ln)” value amounted to 6.57.
To “TAAAAATTATATATCACACATATATGTCAGTATACA [CACACA_site4624]” belongs 6.41; to “ATTTATATGTGGAGCAGTACGCACTCTCACAATTAA [XGTACX_site7252]”, 7.14.
For “CTTCTCTTTTTTATCATGCACTTTTTGTATAATAAT [GTGCAC_site9834]”, the “gcPBM binding intensity (ln)” value worked out at 7.84.
In the case of “ATCATTTTTAAAGGAACACACAAAAAAAATTAAAAT [CACACA_site4878]”, the “gcPBM binding intensity (ln)” value amounted to 6.76.
To “ACATATATTATTATATGTACATATATTAATTATATA [XGTACX_site3400]” belongs 6.34; to “ACTCTCTTATATTAAACACACATATATATCTGTATA [CACACA_site5489]”, 7.04.
For the sequence “GTAAAATATATAAAATGTACATATATTATATATATA [XGTACX_site489]”, the “gcPBM binding intensity (ln)” value came to 7.4.
Regarding “TTTCTTTATTAAAATATTTTACATATATAATATACG [TGCATGCA_negctrl_site564]”, the “gcPBM binding intensity (ln)” value was 6.98.
To “CATTTAAAAGATAAAACACACATACTAATAAAAAAC [CACACA_site5417]” belongs 7.17; to “TATTTCAATATATACCTTTGCTTTTTTAATATACTT [XGTACX_negctrl_site556]”, 6.42; to “AATATAAATAAAAACACACACAATGGTACCTATATA [CACACA_site7688]”, 6.79.
“TCAATATAAATTAGTTGTACAGTTTTTTTTAATTAT [XGTACX_site6358]”: the “gcPBM binding intensity (ln)” value is 6.2.
“AGAATACATATATGAACACACAGAGTTTTAAAAAAT [CACACA_site2735]”: the “gcPBM binding intensity (ln)” value is 6.76.
Consider “TTTAAATAATCTAGGTGTACTTTCCTTTATAAATGT [XGTACX_site7859]”, for which the “gcPBM binding intensity (ln)” value was 6.07.
